Laboratory results reported in the supplement of paper PMC9174493.
Some of the results follow. Single values of this set are uncertain. Values with irradiation are relative to irradiated vehicle.

Experiments:
A549-Dual [1] = assay: NF-kB reporter (SEAP) activity, viability-corrected, relative to vehicle (fold change vs vehicle); higher = more activation of STING-IRF / NF-kB immune response reporter; details: 10 µM
A549-Dual [2] = assay: ISRE reporter (Lucia luciferase) activity, viability-corrected, relative to vehicle (fold change vs vehicle); higher = more activation of STING-IRF / NF-kB immune response reporter; details: 10 µM
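For NF-kB reporter (SEAP) activity, viability-corrected, relative to vehicle in this document: viability correction based on the alamar blue assay, with concentrations leaving 10% survival or less dropped.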

Row | Structure (SMILES) | NF-kB reporter (A549-Dual [1]; irradiation: 8 Gy/4 fr) | NF-kB reporter (A549-Dual [1]; irradiation: none) | ISRE reporter (A549-Dual [2]; irradiation: 8 Gy/4 fr) | ISRE reporter (A549-Dual [2]; irradiation: none)
1 | CC1COc2c(N3CCN(C)CC3)c(F)cc3c(=O)c(C(=O)O)cn1c23 (stereo not drawn) [Ofloxacin] | 0.768 | 0.823 | 0.765 | 0.875
2 | CC1(C)SC2C(NC(=O)C(NC(=O)N3CCN(S(C)(=O)=O)C3=O)c3ccccc3)C(=O)N2C1C(=O)[O-].[Na+] (stereo not drawn) [Mezlocillin Sodium] | 0.906 | 1.11 | 0.868 | 0.893
3 | O.O.O.O.O=P([O-])(O)C(Cl)(Cl)P(=O)([O-])O.[Na+].[Na+] [Clodronate disodium tetrahydrate] | 0.98 | 1.02 | 0.862 | 0.847
4 | CCCNC(C)C(=O)Nc1ccccc1C (stereo not drawn) [Prilocaine] | 1.12 | 0.849 | 1.06 | 0.653
5 | O=C1N=C([O-])NC1(c1ccccc1)c1ccccc1.[Na+] [Phenytoin Sodium] | 1.35 | 1.12 | 1.06 | 0.938
6 | CCCCCCCCCC(=O)OC1(c2ccc(Cl)cc2)CCN(CCCC(=O)c2ccc(F)cc2)CC1 [Haloperidol Decanoate] | 0.664 | 1.02 | 0.688 | 0.626
7 | CC1C/C=C/C=C/C=C/C=C/C(OC2OC(C)C(O)C(N)C2O)CC2OC(O)(CC(O)CC3OC3/C=C/C(=O)O1)CC(O)C2C(=O)O (stereo not drawn) [Natamycin] | 0.78 | 0.967 | 0.792 | 0.787
8 | CC(C)(CO)C(O)C(=O)NCCC(=O)[O-].[Na+] [D-Pantothenate Sodium] | 0.67 | 0.651 | 0.812 | 0.515
9 | CC1CN(c2c(F)c(N)c3c(=O)c(C(=O)O)cn(C4CC4)c3c2F)CC(C)N1 (stereo not drawn) [Sparfloxacin] | 0.595 | 0.962 | 0.578 | 0.779
10 | CC(=O)NC1C(O)CC(O)(C(=O)O)OC1C(O)C(O)CO (stereo not drawn) [N-Acetylneuraminic acid] | 0.678 | 1.42 | 0.669 | 0.862
11 | CC(=O)Oc1ccc(C(c2ccc(OC(C)=O)cc2)c2ccccn2)cc1 [Bisacodyl] | 0.807 | 0.76 | 0.561 | 0.533
12 | OCC1=CC(O)C2C=COC(OC3OC(CO)C(O)C(O)C3O)C12 (stereo not drawn) [Aucubin] | 0.812 | 0.59 | 0.881 | 0.501
13 | CNCCC(Oc1ccc(C(F)(F)F)cc1)c1ccccc1.Cl (stereo not drawn) [Fluoxetine HCl] | 0.566 | 0.856 | 0.747 | 0.97
14 | CN(C)CC1CCn2cc(c3ccccc32)C2=C(C(=O)NC2=O)c2cn(c3ccccc23)CCO1.Cl (stereo not drawn) | 0.756 | 0.67 | 0.413 | 0.366
15 | CC(C)=C1C/C=C(\C)CC/C=C(\C)CC1=O [Germacrone] | 1.06 | 1.11 | 0.922 | 0.805
16 | COc1cc(OC)c2ccc(=O)oc2c1 [Citropten] | 2.05 | 3.84 | 1.97 | 10.8
17 | COc1cc2nc(N3CCN(C(=O)C4CCCO4)CC3)nc(N)c2cc1OC.Cl (stereo not drawn) [Terazosin HCl] | 0.786 | 1.18 | 0.781 | 0.805
18 | N[C@@H](Cc1c[nH]c2ccccc12)C(=O)O [L-Tryptophan] | 0.78 | 0.981 | 0.864 | 0.654
19 | CC12CCC(=O)C=C1CCC1C2C(O)CC2(C)C(C(=O)CO)CCC12 (stereo not drawn) [Corticosterone] | 0.479 | 0.714 | 0.141 | 0.218

Row | Structure (SMILES) | NF-kB reporter (A549-Dual [1]; irradiation: 8 Gy/4 fr) | NF-kB reporter (A549-Dual [1]; irradiation: none) | ISRE reporter (A549-Dual [2]; irradiation: 8 Gy/4 fr) | ISRE reporter (A549-Dual [2]; irradiation: none)
20 | Cc1cc(C(C)(C)C)cc(C)c1CC1=NCCN1.Cl [Xylometazoline HCl] | 0.839 | 0.856 | 0.922 | 0.846
21 | Cl.OC(c1cc(C(F)(F)F)nc2c(C(F)(F)F)cccc12)C1CCCCN1 (stereo not drawn) [Mefloquine HCl] | 0.55 | 0.723 | 0.684 | 2.27
22 | CC(=O)N[C@@H](Cc1ccc(O)cc1)C(=O)O [N-Acetyl-L-tyrosine] | 1.17 | 0.97 | 1.01 | 0.658
23 | Clc1ccc2c(c1)C(N1CCNCC1)=Nc1ccccc1O2 [Amoxapine] | 0.798 | 1.5 | 0.753 | 0.81
24 | CC(C)C(N)C(=O)OCC(CO)OCN1C=NC2C(=O)NC(N)=NC21.Cl (stereo not drawn) [Valganciclovir HCl] | 0.559 | 0.886 | 0.58 | 0.747
25 | Nc1ccc(S(N)(=O)=O)cc1 [Sulfanilamide] | 1.06 | 1.09 | 1.29 | 1.02
26 | CCC1C(O)C2C3CCC(C(C)CCC(=O)O)C3(C)CCC2C2(C)CCC(O)CC12 (stereo not drawn) [Obeticholic Acid] | 0.666 | 0.801 | 0.546 | 0.797
27 | NS(=O)(=O)c1cc2c(cc1Cl)N=C(CSCc1ccccc1)NS2(=O)=O [Benzthiazide] | 1.22 | 0.913 | 1.29 | 0.938
28 | O=C[C@H](O)[C@@H](O)[C@@H](O)CO [L-(+)-Arabinose] | 1.62 | 0.687 | 1.74 | 0.722
29 | COc1ccc(C(=O)c2ccccc2)c(O)c1 [Oxybenzone] | 0.759 | 0.506 | 0.636 | 0.459
30 | Clc1ccc(COC(Cn2ccnc2)c2ccc(Cl)cc2Cl)c(Cl)c1.O=[N+]([O-])O (stereo not drawn) [Miconazole Nitrate] | 0.472 | 0.692 | 0.334 | 0.556
31 | CNC1C(OC2C(OC3C(O)C(O)C(NC(=N)N)C(O)C3NC(=N)N)OC(C)C2(O)C=O)OC(CO)C(O)C1O.CNC1C(OC2C(OC3C(O)C(O)C(NC(=N)N)C(O)C3NC(=N)N)OC(C)C2(O)C=O)OC(CO)C(O)C1O.O=S(=O)(O)O.O=S(=O)(O)O.O=S(=O)(O)O (stereo not drawn) [Streptomycin sulfate] | 1.01 | 0.958 | 0.929 | 1.04
32 | COc1cc2nc(N3CCN(C(=O)C4CCCO4)CC3)nc(N)c2cc1OC.Cl.O.O (stereo not drawn) [Terazosin HCl Dihydrate] | 0.855 | 0.682 | 1.09 | 0.721
33 | CC12CC3(O)OC(O1)C1(COC(=O)c4ccccc4)C3CC21OC1OC(CO)C(O)C(O)C1O (stereo not drawn) [Paeoniflorin] | 0.756 | 0.563 | 0.87 | 0.557
34 | CC(C)=CCC/C(C)=C/CO [Geraniol] | 1.33 | 0.738 | 1.42 | 0.763
35 | CCCCC(C)C(=O)O (stereo not drawn) [2-Methylhexanoic acid] | 1.16 | 0.974 | 1.43 | 0.842
36 | O=C1/C(=C2\Nc3ccccc3C2=O)Nc2ccccc21 [Indigo] | 0.7 | 0.754 | 0.299 | 0.356
37 | CCN(CC)CCNC(=O)c1ccc(N)cc1.Cl [Procainamide HCl] | 0.86 | 0.961 | 0.857 | 0.836
38 | CC(NCc1ccc(OCc2cccc(F)c2)cc1)C(N)=O.CS(=O)(=O)O (stereo not drawn) [Safinamide Mesylate] | 0.77 | 0.912 | 0.961 | 0.952

Row | Structure (SMILES) | NF-kB reporter (A549-Dual [1]; irradiation: 8 Gy/4 fr) | NF-kB reporter (A549-Dual [1]; irradiation: none) | ISRE reporter (A549-Dual [2]; irradiation: 8 Gy/4 fr) | ISRE reporter (A549-Dual [2]; irradiation: none)
39 | CO/N=C(\C(=O)NC1C(=O)N2C(C(=O)OC(C)OC(C)=O)=C(COC(N)=O)CSC12)c1ccco1 (stereo not drawn) [Cefuroxime axetil] | 0.854 | 0.855 | 0.794 | 0.617
40 | O=C(O)/C=C/c1ccc(Cn2ccnc2)cc1 [Ozagrel] | 1.06 | 0.59 | 1.17 | 0.758
41 | COCCNC(=O)CN(CCN(CCN(CC(=O)[O-])CC(=O)NCCOC)CC(=O)[O-])CC(=O)[O-].[Gd+3] [Gadoversetamide] | 0.771 | 0.723 | 0.74 | 0.62
42 | O=C1CCc2cc(OCCCCc3nnnn3C3CCCCC3)ccc2N1 [Cilostazol] | 0.63 | 0.925 | 0.577 | 0.604
43 | C[S+](CCC(N)C(=O)[O-])CC1OC(n2cnc3c(N)ncnc32)C(O)C1O (stereo not drawn) [Ademetionine] | 0.568 | 0.613 | 0.612 | 0.726
44 | CC(=O)c1ccccc1 [Acetophenone] | 0.753 | 0.688 | 1.01 | 0.705
45 | CCn1cc(C(=O)O)c(=O)c2cc(F)c(N3CCNCC3)cc21 [Norfloxacin] | 0.732 | 0.854 | 0.677 | 0.862
46 | CC(OCC1(c2ccccc2)CCC2(CCC(=O)N2)CN1)c1cc(C(F)(F)F)cc(C(F)(F)F)c1 (stereo not drawn) [Rolapitant] | 0.566 | 0.585 | 0.139 | 0.479
47 | CC1(C)SC2C(NC(=O)Cc3ccccc3)C(=O)N2C1C(=O)O.CCN(CC)CCOC(=O)c1ccc(N)cc1.O (stereo not drawn) [Penicillin G Procaine] | 0.612 | 0.944 | 0.583 | 0.617
48 | CC(=O)N=c1sc(S(N)(=O)=O)nn1C [Methazolamide] | 0.906 | 1.16 | 0.964 | 1.21
49 | CCOC(=O)C1=C(COCCN)NC(C)=C(C(=O)OC)C1c1ccccc1Cl (stereo not drawn) [Levamlodipine] | 0.768 | 0.929 | 0.959 | 1.58
50 | C=CC(C)(O)CC/C=C(\C)CCC=C(C)C (stereo not drawn) [Nerolidol] | 0.725 | 0.501 | 0.626 | 0.558
51 | COc1ccc2ccc(=O)oc2c1CC=C(C)C [Osthole] | 0.996 | 0.861 | 1 | 0.824
52 | C#CC1(O)CCC2C3CCC4=CCCCC4C3C(=C)CC21CC (stereo not drawn) [Desogestrel] | 0.6 | 0.738 | 0.67 | 0.806
53 | CCCCOCc1ccc(O)c(OC)c1 [Vanillyl Butyl Ether] | 0.634 | 0.606 | 0.708 | 0.558
54 | CCOC(=O)C(CCc1ccccc1)NC1CSC(c2cccs2)CN(CC(=O)O)C1=O.Cl (stereo not drawn) [Temocapril HCl] | 0.602 | 1.07 | 0.683 | 1.04
55 | COCCc1ccc(OCC(O)CNC(C)C)cc1.COCCc1ccc(OCC(O)CNC(C)C)cc1.O=C(O)C(O)C(O)C(=O)O (stereo not drawn) [Metoprolol Tartrate] | 1.03 | 1.05 | 1 | 0.852
56 | CC1=C(C(=O)O)N2C(=O)C(NC(=O)C(N)c3ccc(O)cc3)C2SC1.O (stereo not drawn) [Cefadroxil hydrate] | 0.71 | 0.815 | 0.694 | 0.744
57 | Cc1nnc(SCC2=C(C(=O)O)N3C(=O)C(NC(=O)Cn4cnnn4)C3SC2)s1 (stereo not drawn) [Cefazolin] | 0.845 | 1.04 | 0.698 | 0.854
